Laboratory results taken from PubChem BioAssay AID493208 (National Center for Advancing Translational Sciences (NCATS), 2011).
The campaign covered roughly 44,000 compounds. About 340 (0.77%) were called active. Roughly 5% stayed inconclusive and do not appear here. Calls come from the whole dose curve; as a rule, active = well fitted inhibition curve with a large enough effect; inconclusive = small, poorly fitted or top-dose-only effect; inactive = flat fitted curve, though single readings scatter. This is one part of the list.

experiment: Acumen qHTS Assay for Inhibitors of the mTORC1 Signaling Pathway in MEF (Tsc2-/-, p53-/-) Cells: Sytravon; conditions: phospho-rpS6 immunofluorescence/PI, 24 h; series mostly up to 38.3 µM; activity change, negative = inhibition: at the top concentration;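 note: plate controls were DMSO for no effect and rapamycin for full effect; nearly all actives have a fitted effect of over 50% in size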
Outline: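 Plate MEFs (Tsc2-/-, p53-/-, empty vector) in DMEM/10% FBS; after 24 h add compound, incubate 24 h at 37 degree Celsius; fix in PFA/TX-100, block, stain phospho-rpS6 and 10 uM PI; scan at 488 nm; report % positive cells.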

Activity change, negative = inhibition, inactive:
O=C(Cn1cc(C(=O)c2cccs2)c2ccccc21)Nc1ccc(Br)cc1 -0.491%
COc1cccc(C(c2sc3nc(-c4ccco4)nn3c2O)N2CCN(C)CC2)c1 (stereo not drawn) -2.55%
COc1ccc(CNC(=O)CN(C)S(=O)(=O)c2ccc3c(c2)c(=O)n(C)c(=O)n3C)cc1 -0.544%
COc1ccc(C(=O)Oc2cc(-c3ccc(OC)c(OC)c3)cc(=O)c3c(C)oc(C)c23)cc1 0%
CCS(=O)(=O)Nc1ccc(-c2cn3c(C)csc3n2)cc1 2.37%
COc1ccc(-c2cc(C(=O)NCCc3ccccc3)c3c(-c4ccc(Cl)cc4)[nH]nc3n2)cc1 4.66%
COc1ccc(CCNC(=O)CS(=O)(=O)Cc2nc(-c3cccc(Cl)c3)oc2C)cc1OC -9.15%
CC(C)c1ccccc1NC(=O)Cn1cnc2c1c(=O)n(C)c(=O)n2C -3.84%
COc1ccc(CNC(=O)c2cccn2-c2nnc(N3CCCCC3)s2)c(OC)c1 -6.9%
O=C(CCS(=O)(=O)c1cc(Br)cc2c1N(C(=O)C1CC1)CC2)N1CCN(c2cccc(C(F)(F)F)c2)CC1 -4.44%
O=C(Cn1c(=O)n(Cc2ccc(C(=O)NCc3ccc4c(c3)OCO4)cc2)c(=O)c2ccccc21)Nc1ccccc1F -0.305%
Cc1cccc(N2C(=O)N(Cc3cccc(C#N)c3)c3ccccc3S2(=O)=O)c1 -0.75%
CCCNC(=O)c1c(NC(=O)c2ccccc2)sc2c1CCC(C(C)(C)C)C2 (stereo not drawn) 4.05%
CC(C)N(Cc1nc(-c2ccc(Cl)cc2)no1)C(=O)c1ccco1 -19.1%
CCCc1nnc(NC(=O)C(CC)Sc2nnc3c4ccccc4n(C)c3n2)s1 (stereo not drawn) 3.27%
COc1ccc(-n2ccn(CC(=O)Nc3ccc(C)cc3C)c(=O)c2=O)cc1 5.3%
CC(C)(C)c1ccc(C(=O)NC(Cc2c[nH]c3ccccc23)C(=O)OCC(=O)c2ccc(Br)cc2)cc1 (stereo not drawn) 6.72%
COc1ccc2c(c1)c1c(c(=O)n(-c3cccc(C)c3)c(=O)n1CC(=O)NCc1ccc(C)cc1)n2C -13.6%
Cc1ccc(OCC(=O)Nc2ccc3nn(-c4ccc(C)cc4)nc3c2)cc1 4.6%
Cc1cccc(CCNC(=O)CCS(=O)(=O)c2cc3c(cc2C)NC(=O)CO3)c1 1.79%
Cc1nn(CCC(=O)Nc2ccccc2Br)c(=O)c2nn(-c3ccccc3)c(C)c12 -3.04%
CCc1nnc2c(Nc3ccccc3Br)nc3ccccc3n12 -9.44%
Cn1cnc(S(=O)(=O)N2CCC(C(=O)Nc3ccc(Cl)c(C(F)(F)F)c3)CC2)c1 2.99%
CCOC(=O)N1CCC2(CC1)OC(=O)C(C)=C2C(=O)NCc1ccccc1OC -16.8%
COc1ccccc1N1CCN(C(=O)CNS(=O)(=O)c2ccc(Br)s2)CC1 -21.9%
CCc1cccc(NS(=O)(=O)c2ccc3c(c2)N(CC(=O)OC)C(=O)CS3)c1 -18.1%
Cc1cccc(C(C)C)c1NC(=O)c1ccc2c(c1)CCCN2S(C)(=O)=O -16.7%
Cc1cc(Cl)ccc1OCC(=O)N(Cc1ccc(N(C)C)cc1)C1CCS(=O)(=O)C1 (stereo not drawn) 7.01%
CCCn1cc(S(=O)(=O)c2cccc(Cl)c2)c(=O)c2cc(F)c(N3CCCC3)cc21 2.71%
CCOC(=O)c1cc(-c2ccc(C)cc2)n(CC(=O)Nc2ccc(OC)cc2OC)c1C -7.66%
Cc1ccc(S(=O)(=O)N(CC(=O)NCCSc2ccc(Cl)cc2)c2cccc(Cl)c2)cc1 0.214%
CCN1CCN(C(c2ccc(F)cc2)c2sc3nc(-c4ccco4)nn3c2O)CC1 (stereo not drawn) -5.85%
Cc1ccc(S(=O)(=O)CCC(=O)N2CCN(c3nc4c(C)c(C)ccc4s3)CC2)cc1 2.3%
Cc1ccc(OCC(=O)Nc2nonc2-c2ccc(Br)cc2)cc1 -0.998%
CCC(C)NC(=O)c1cnn(-c2cccc(F)c2)c1-n1cccc1 (stereo not drawn) 8.53%
CC(C)OCCCNC(=O)CN1C(=O)c2ccccc2Sc2ncccc21 -0.619%
O=C(Nc1cccc2c1CCCC2)N1CCOc2ccc(Cl)cc21 0.351%
CCCC(=O)Nc1ccc2nc(SCC(=O)N3CCOCC3)sc2c1 -13.3%
N#C/C(=C\c1ccc(-c2cccc(Cl)c2)o1)C(=O)Nc1cccc(C(F)(F)F)c1 -15.7%
Cc1oc2ncnc(N3CCOCC3)c2c1C(=O)NCc1ccc(Cl)cc1 -3.81%
Fc1ccc(N2CCN(c3ncnc4[nH]ncc34)CC2)cc1 -1.09%
CCc1c(C)nc2nncn2c1Nc1ccc(Cl)cc1 -12.4%
COc1ccc(-n2c(=O)c3c4c(sc3n(Cc3ccc(C)cc3C)c2=O)CCC4)c(OC)c1 -5.5%
CCc1nc2ccccc2n2c(-c3ccccc3)c3c(=O)n(C)c(=O)n(C)c3c12 -14.5%
CCC(C(=O)Nc1ccc(C(C)=O)cc1)n1cnc2nc3c(cc2c1=O)CCCC3 (stereo not drawn) -6.73%
CCOc1ccccc1NS(=O)(=O)c1ccc2c(c1)CC(C)N2C(=O)C1CC1 (stereo not drawn) -18.5%
COc1ccc(OC)c(CNC(=O)Cn2ncc3c([nH]c4ccc(C)cc43)c2=O)c1 2.87%
COc1cc(C(CC(=O)NCc2ccccc2)N2Cc3ccccc3C2=O)cc(OC)c1OC (stereo not drawn) -11.8%
O=C(NCCc1csc(-c2ccc(F)cc2)n1)c1ccco1 2.03%
CC1=C(C(=O)Nc2cc(Cl)ccc2C)C2(CCCCC2)OC1=O -0.504%
Cc1cc(C)n2nc(CNC(=O)c3ccccc3Cl)nc2n1 -6.62%
Cc1cc(C)cc(NC(=O)CCc2nnc3n(C)c(=O)c4sccc4n23)c1 -7.34%
CCSc1ccc(C(=O)Nc2ccc(-c3nc4ccc(C)cc4s3)cc2)cc1 -0.351%
COC(=O)c1c(SC)nc2ccccc2c1OCc1ccccc1Cl 3.67%
CCOc1ccc(NC(=O)C2CCN(c3nc4ccccc4[nH]3)CC2)cc1 -7.16%
COC(=O)C1=C(C)N=C2SCCC(=O)N2C1c1ccc(OCc2ccccc2)c(OC)c1 (stereo not drawn) -0.728%
CCOC(=O)c1c(C)[nH]c(C)c1S(=O)(=O)N(C)CC(=O)N1CCN(c2ccc(Cl)cc2)CC1 2.9%
CCOc1ccc(CN2CCc3nc(N4CCN(c5ncccn5)CC4)ncc3C2)cc1OC 0%
CCC(CC)C(=O)OCc1cc(=O)n2nc(C3CCCCC3)sc2n1 -7.53%
Cc1ccc(-c2c(C(=O)N3CCN(c4cccc(C)c4)C(C)C3)oc(=O)c3ccccc23)cc1 (stereo not drawn) 4.21%
CC(C)(C)OC(=O)N1CCC(c2c(C(=O)NCCc3ccsc3)cnn2-c2ccccc2Cl)CC1 -3.04%
CCOc1ccc(N2C(=O)CS(=O)(=O)C23C(=O)N(Cc2cccc(Cl)c2)c2ccccc23)cc1 (stereo not drawn) 2.26%
COc1ccc(N2CC(NC(=O)COc3ccc(F)cc3)CC2=O)cc1OC (stereo not drawn) 0.112%
CC(C)(C)OC(=O)N1CCC(c2c(C(=O)Nc3ccc4c(c3)OCCO4)cnn2-c2ccc(F)cc2F)CC1 -21%
Cn1cnc2c(=O)oc3ccc(S(=O)(=O)N4CCN(c5cccc(C(F)(F)F)c5)CC4)cc3c21 0.225%
CCOC(=O)C(=O)NCC(c1cccnc1)N1CCN(c2ccccc2)CC1 (stereo not drawn) 9.97%
CCOC(=O)CC(NC(=O)c1cc2cc(Br)cc(OC)c2oc1=O)c1ccc(OC)cc1 (stereo not drawn) 0.503%
Cc1ccc(-c2nc3c(c(SCC(=O)N(C)c4ccccc4)n2)Cc2c(CO)cnc(C)c2O3)cc1 -0.415%
O=C(Nc1cccc(OCc2cc(=O)n3ccccc3n2)c1)c1ccccc1Br -0.0609%
COc1ccc(S(=O)(=O)NCCc2nnc3ccc(SCC(=O)Nc4cc(C)cc(C)c4)nn23)cc1 3.45%
Cn1c(=O)n(C)c2cc(N3CCOCC3)c(NC(=O)c3ccc(Cl)cc3)cc21 7.82%
O=C(NCc1ccc2c(c1)CCN2C(=O)c1ccncc1)c1ccccc1Cl -4.05%
O=C1C(=O)N(C2CCN(S(=O)(=O)c3ccccc3)CC2)CCN1Cc1ccccc1 3.01%
COc1cccc(N2CCN(C(=O)C3CCCN(S(=O)(=O)c4ccc5c(c4)oc(=O)n5C)C3)CC2)c1 (stereo not drawn) -1.75%
COc1ccccc1CCNC(=O)C(=O)NCC(c1ccco1)S(=O)(=O)c1ccc(F)cc1 (stereo not drawn) -0.579%
Cn1c(=O)c2c(nc(CN3CCN(c4ccccc4F)CC3)n2Cc2ccccc2F)n(C)c1=O -1.39%
Cn1c2ccccc2c2c(C(=O)N3CCN(c4cccc(Cl)c4)CC3)cn(C3CCCCC3)c(=O)c21 -8.13%
CCSc1ncc(Cl)c(C(=O)Nc2ccc(S(=O)(=O)Nc3ncccn3)cc2)n1 2.37%
COc1cccc(CNC(=O)CCCn2ncn3c(cc4occc43)c2=O)c1OC -3.9%
COC(=O)CN1C(=O)CSc2ccc(S(=O)(=O)Nc3cccc(C)c3)cc21 -0.942%
Cc1cccc(C(=O)Nc2nc3nc(-c4ccccc4)cc(=O)n3[nH]2)c1 0.564%
COc1cc(-c2nc(-c3ccc4c(c3)[nH]c(=O)n4C)no2)cc(OC)c1OC -2.24%
COc1ccc(-n2c(/C=C/c3cccc(C(F)(F)F)c3)nc3ccccc3c2=O)cc1Cl 9%
CCOc1ccccc1NC(=O)C1CCN(S(=O)(=O)c2ccc3[nH]c(=O)ccc3c2)CC1 -10.3%
CCOc1ccc(CCNC(=O)C2CCN(Cc3nc(-c4ccc(OC)c(OC)c4)oc3C)CC2)cc1OCC -8.9%
Cc1ccc(S(=O)(=O)N2CCN(Cc3cc(Br)ccc3O)CC2)cc1 3.25%
Cc1ccn2c(=O)cc(COc3ccc(NC(=O)COc4ccccc4)cc3)nc2c1 5.72%
Cn1cc(S(=O)(=O)N2CCCCCC2)cc1C(=O)N1CCN(c2cccc(C(F)(F)F)c2)CC1 9.33%
CCC(=O)N1CCc2cc(Br)cc(S(=O)(=O)N3CCCC(C(=O)NCc4ccc(F)cc4)C3)c21 (stereo not drawn) -9.16%
N#Cc1ccccc1NC(=O)C(=O)NCCc1csc(-c2ccc(C(F)(F)F)cc2)n1 -0.0889%
CCc1ccc(NC(=O)COC(=O)CCCC2=NS(=O)(=O)c3ccccc3N2)cc1 -0.889%
O=C1CSC2(C(=O)N(Cc3ccccc3)c3ccccc32)N1c1cccc(F)c1 (stereo not drawn) 0%
Cc1ccc2nc(COc3ccccc3NC(=O)c3ccccc3C)cc(=O)n2c1 4.47%
